Target: T1, Cynomolgus monkey CD73 on HEK293-cynoCD73 stable cell line (cynomolgus monkey)
T1 construct: whole, on cells
Experiment: flow cytometry on HEK293-cynoCD73 stable cells

EC50 [nM]	Binder
0.307	PR000846 (antibody, human IgG1, kappa, PTM-removal variant of PR000506 (heavy chain G55A, G100A)) heavy: QVQLVESGGGVAQPGRSLSLSCAASGFTFSDYGMHWVRQAPGKGLEWVALIWYDASFEYYADSVKGRFSISRDNSKNTLYLQMNSLRAEDTAVYYCVRDAQWGSRLDYWGQGTLVTVSSASTKGPSVFPLAPSSKSTSGGTAALGCLVKDYFPEPVTVSWNSGALTSGVHTFPAVLQSSGLYSLSSVVTVPSSSLGTQTYICNVNHKPSNTKVDKKV[human IgG1 Fc with changes skipped] light: KIVMTQSPATLSLSPGERATLSCRASQSVSRYLAWYQQKPGQAPRLLIYDASNRATGIPARFSGSGSGTDFTLTISSLEPEDFAVYYCQQRSNWIFTFGPGTKVDIKRTVAAPSVFIFPPSDEQLKSGTASVVCLLNNFYPREAKVQWKVDNALQSGNSQESVTEQDSKDSTYSLSSTLTLSKADYEKHKVYACEVTHQGLSSPVTKSFNRGEC
0.347	PR000850 (antibody, human IgG1, kappa, PTM-removal variant of PR000851 (heavy chain G55A, G100A)) heavy: QVQLVESGGGVAQPGRSLSLSCAASGFTFSDYGMHWVRQAPGKGLEWVALIWYDASFEYYADSVKGRFSISRDNSKNTLYLQMNSLRAEDTAVYYCVRDAQWGSRLDYWGQGTLVTVSSASTKGPSVFPLAPSSKSTSGGTAALGCLVKDYFPEPVTVSWNSGALTSGVHTFPAVLQSSGLYSLSSVVTVPSSSLGTQTYICNVNHKPSNTKVDKKV[human IgG1 Fc with changes skipped] light: EIVLTQSPATLSLSPGERATLSCRASQSVSRYLAWYQQKPGQAPRLLIYDASNRATGIPARFSGSGSGTDFTLTISSLEPEDFAVYYCQQRSNWIFTFGPGTKVDIKRTVAAPSVFIFPPSDEQLKSGTASVVCLLNNFYPREAKVQWKVDNALQSGNSQESVTEQDSKDSTYSLSSTLTLSKADYEKHKVYACEVTHQGLSSPVTKSFNRGEC

Source: patent US20230357425A1 (HARBOUR BIOMED SHANGHAI, published 2023)
